Measured values published in the supplement of paper PMC10322689.
Where “and” joins values, the source holds several entries; their conditions need not be identical. Identical values can stand only once. Counter-ions that a name gives are not always drawn. ± gives the standard deviation of the averaged measurements. Some of the results follow. Single values are uncertain, as repeats are few or missing.

test system: mouse mesenchymal chondrosarcoma cells (HEY1-NCOA2); assay: XTT absorbance relative to DMSO control (cell viability) (fraction of DMSO control); higher = more viable cells / less growth inhibition

SMILES	XTT absorbance
O=Cc1ccc(N2CCOCC2)cc1O	0.904
COCC[n+]1c2c(n(Cc3cnccn3)c1C)C(=O)c1ccccc1C2=O	0.351
C=CCc1cccc(/C=N/NC(=O)CN2CCN(Cc3ccccc3)CC2)c1O	0.853
CC1=Nc2ccc(Cl)cc2S(=O)(=O)N1 [Diazoxide]	0.921
Cn1nnc2c(C(N)=O)ncn2c1=O [temozolomide]	1.02
N#C/C(=C\c1ccc2oc(=O)[nH]c2c1)C(=O)c1ccc(O)c(O)c1	0.928
C[C@@H](Oc1cc(-c2cnn(C3CCNCC3)c2)cnc1N)c1c(Cl)ccc(F)c1Cl [crizotinib]	0.693
Cc1nc(Nc2ncc(C(=O)Nc3c(C)cccc3Cl)s2)cc(N2CCN(CCO)CC2)n1 [dasatinib]	0.575
O=C(NCCCCCCNC(=O)ON=C1CCCCC1)ON=C1CCCCC1	0.92
Nc1ncn([C@@H]2O[C@H](CO)[C@@H](O)[C@H]2O)c(=O)n1 [Azacytidine]	0.873
Cc1ccc(-c2cn3c4c(sc3n2)CCCC4)cc1 [Pifithrin-a (cyclic)]	0.965
Cc1cc(C=C2C(=O)C=CC2=O)cc(C)c1O	0.945
CN(Cc1cnc2nc(N)nc(N)c2n1)c1ccc(C(=O)N[C@@H](CCC(=O)O)C(=O)O)cc1 [Methotrexate]	0.378
COc1cc(Nc2ncc3c(n2)-c2ccc(Cl)cc2C(c2c(F)cccc2OC)=NC3)ccc1C(=O)O	0.737
CC(C)(C)NC(=O)[C@H]1CC[C@H]2[C@@H]3CC[C@H]4NC(=O)C=C[C@]4(C)[C@H]3CC[C@]12C [Finasteride]	1
CCN(CC)CC(=O)Nc1c(C)cccc1C [Lidocaine]	0.913
C[S+]([O-])c1ccc(-c2nc(-c3ccc(F)cc3)c(-c3ccncc3)[nH]2)cc1 (stereo unspecified)	0.824
COc1cccc(-c2cc(=O)c3ccccc3o2)c1N	0.858 and 0.902

SMILES	XTT absorbance
CC(=O)N[C@@H](CS)C(=O)O [N-Acetyl-L-cysteine]	0.868
Ic1cccc(CSc2nnc(-c3ccncc3)o2)c1 [GSK-3 inhibitor II]	0.86
CN(C)c1ccccc1CN1CCCN(Cc2ccccc2N(C)C)C1c1ccncc1	1
c1cc(CN2CCCNCCNCCCNCC2)ccc1CN1CCCNCCNCCCNCC1 [AMD3100 octahydrochloride]	1.1
O=C(Nc1ccc([N+](=O)[O-])cc1O)Nc1ccccc1Br	0.825
COc1cc([C@@H]2c3cc4c(cc3[C@@H](O[C@@H]3O[C@@H]5CO[C@@H](C)O[C@H]5[C@H](O)[C@H]3O)[C@H]3COC(=O)[C@H]23)OCO4)cc(OC)c1O [Etoposide (VP-16)]	0.57
NNCCc1ccccc1 [Phenelzine]	0.975
Cc1ccc(NC(=O)c2cccc(N(C)C)c2)cc1NC(=O)c1ccc(O)cc1	0.96
CCCCC(=O)Oc1ccccc1C(=O)O [Valeryl salicylate]	0.935
CO[C@@]12[C@H](COC(N)=O)C3=C(C(=O)C(C)=C(N)C3=O)N1C[C@@H]1N[C@@H]12 [Mitomycin C]	0.649
CCn1cc(C(=O)O)c(=O)c2ccc(C)nc21 [Nalidixic acid]	0.902
CO[C@@H]1[C@H](OC(=O)/C=C/C=C/C=C/C=C/C(=O)O)CC[C@]2(CO2)[C@H]1[C@@]1(C)O[C@@H]1CC=C(C)C [Fumagillin]	0.732
NC(=O)c1ccc(I)c([N+](=O)[O-])c1 [BSI-201 (Iniparib)]	0.989
O=C(Nc1cccc(NC(=O)c2cccc(O)c2O)c1)c1cccc(O)c1O	0.74
Nc1[nH]nc2nnc(-c3c(-c4ccccc4)nn4ccccc34)cc12 [ERK inhibitor II]	0.914
COc1cc2ncnc(Nc3cccc(Cl)c3)c2cc1OC	0.8207 ± 0.0069
COc1cc(O)c(CC=C(C)C)c(O)c1C(=O)/C=C/c1ccc(O)cc1 [Xanthohumol]	0.907
O=c1[nH]c(NCc2ccccc2)nc2nc[nH]c12 [Benzylguanine]	0.943
